Data as given in PubChem BioAssay AID1346428 (National Center for Advancing Translational Sciences (NCATS), 2018).
The campaign covered roughly 48,000 compounds. About 1,200 (2.5%) were called active. About 2% were inconclusive and are not listed.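 How the source made its calls: active means activation of at least 60% and not above a set upper limit (about 1 call in 100 departs from these limits); inconclusive means activation of 40% to 60%, or above that upper limit; inactive means activation under 40%.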 This is one part of the list.

Target: Probable G-protein coupled receptor 32 (Homo sapiens) (UniProt O75388)
Sequence of UniProt O75388 (O75388 whole entry, looked up): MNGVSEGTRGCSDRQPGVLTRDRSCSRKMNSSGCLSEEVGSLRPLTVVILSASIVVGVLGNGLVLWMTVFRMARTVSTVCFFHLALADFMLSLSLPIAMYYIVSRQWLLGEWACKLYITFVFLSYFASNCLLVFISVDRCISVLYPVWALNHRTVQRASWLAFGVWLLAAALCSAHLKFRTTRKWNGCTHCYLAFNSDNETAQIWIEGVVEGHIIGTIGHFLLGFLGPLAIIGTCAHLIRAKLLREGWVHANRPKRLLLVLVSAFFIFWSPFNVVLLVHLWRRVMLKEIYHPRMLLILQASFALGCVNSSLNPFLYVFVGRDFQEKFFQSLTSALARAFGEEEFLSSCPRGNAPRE
Assay: qHTS for Agonists of Human Resolvin D1 Receptor DRV1; further: 0% is about no effect
Details: CHO-K1 GPR32 beta-arrestin PathHunter luminescence, 90 min; at 76.9 µM; hits give high values; zero percent set by DMSO-only wells
In short: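 Luminescent readout of beta-Gal complementation quantifies ligand-induced beta-arrestin association with GPR32 in CHO-K1 cells; 90 min compound incubation at 37 °C, detection 1 h at room temperature.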

activation, inactive:
COc1ccc(C(CNC(=O)c2ccc(F)cc2)N2CCCC2)cc1 (configuration not stated) -13.8%
CCOc1ccc2nc(NC(=O)c3nc(SCc4ccccc4C)ncc3Cl)sc2c1 1.75%
CCCSc1ncc(Cl)c(C(=O)Nc2c(C(=O)c3ccc(C)cc3)oc3ccccc23)n1 -0.669%
CCC(=O)N1c2ccc(S(=O)(=O)CCC(=O)N3CCN(c4cc(C)ccc4C)CC3)cc2CC1C (configuration not stated) -0.194%
Cc1cc(C)cc(NC(=O)N2CCC(CN3CCCCCC3)CC2)c1 -27.2%
CCOC(=O)N1CCN(Cc2nc3cc([N+](=O)[O-])ccc3n2C(C)C)CC1 -0.279%
CC(C)c1nc2ccc(C(=O)NCCCN3CCN(c4cccc(Cl)c4)CC3)cc2o1 -2.85%
Cc1cccc(N2CCN(C(=O)CN3C(=O)COc4ccc(S(=O)(=O)N5CCC(C)CC5)cc43)CC2C)c1 (configuration not stated) -18.1%
CCOc1ccc(CNC(=O)c2cnc3sc(N4CCOCC4)nn3c2=O)cc1OC -9.65%
CCOc1ccc(CCNC(=O)c2nc(-c3cccc(F)c3)n3c2CCCCC3)cc1OCC -36.8%
CCOC(=O)C1CCC(CN(Cc2ccc(Cl)cc2)S(=O)(=O)c2cc(Cl)cc(Cl)c2)CC1 (configuration not stated) 11.4%
Cc1cccc(N2CCN(C(=O)C3CCCN(S(=O)(=O)c4ccc(Br)s4)C3)CC2)c1C (configuration not stated) -6.62%
Cc1ccc2scc(N3CCC(C)CC3)c(=O)c2c1 -29%
COc1cccc(NS(=O)(=O)c2ccc3c(c2)[C@H]2C=CC[C@H]2[C@@H](c2ccccc2Cl)N3)c1 -11.3%
CCN(CC)CCNC(=O)CSc1nc2nc(C)c(Cc3ccccc3)c(C)n2n1 -13.4%
COc1ccccc1NC(=O)CSc1nc2nccnc2c(=O)n1CCc1c[nH]c2ccccc12 -0.814%
Cc1cccn2c(Nc3ccccc3)c(-c3cccs3)nc12 -22.8%
COc1cccc(CNC(=O)Cc2ccc(NC(=O)N3CCSc4ncccc43)cc2)c1OC 2.59%
Cc1[nH]c2ccccc2c1C(c1ccccc1)c1ccc(Cl)s1 (configuration not stated) 0.0676%
CCOc1ccccc1NC(=O)CCn1cnnn1 -2.04%
CN=C(NC#N)Nc1ccc(C2=NNC(=O)CC2C)cc1 (configuration not stated) 5.6%
COc1ccccc1CNC(=O)CSc1nc2nc(C)c(Cc3ccccc3Cl)c(C)n2n1 -24.2%
COc1ccc(N2C(=O)CS(=O)(=O)C23C(=O)N(Cc2ccc(F)cc2)c2ccc(C)cc23)cc1 (configuration not stated) -3.94%
CCC(=O)N1CCc2cc(Br)cc(S(=O)(=O)N3CCCC(C(=O)Nc4cccc(C)c4C)C3)c21 (configuration not stated) -3.79%
Cc1ccccc1NC(=O)c1c(NC(=O)c2ccco2)sc2c1CCC(C(C)(C)C)C2 (configuration not stated) 2.36%
Cc1ccc(Cl)cc1NC(=O)C1CCCN(S(=O)(=O)c2cccc3cccnc23)C1 (configuration not stated) -7.8%
CCCCNC(=O)c1nn(-c2ccc(C)cc2)c(=O)n(C)c1=O -8.09%
CC(CNC(=O)CN1C(=O)COc2ccc(S(=O)(=O)N3CCCCCC3)cc21)c1ccccc1 (configuration not stated) -37.1%
COc1ccc(CCNC(=O)c2cccc(-n3cnc4cccnc43)c2C)cc1OC 0.288%
CC(=O)[C@@]1(O)CC[C@H]2[C@@H]3C[C@H](C)C4=CC(=O)CC[C@]4(C)[C@H]3CC[C@@]21C 7.47%
CC(Oc1ccccc1)C(=O)Nc1ccc(OCc2cc(=O)n3ccsc3n2)cc1 (configuration not stated) 15%
Cc1ccccc1CNC(=O)c1cccc(NC(=O)N2CCSc3ncccc32)c1 5.02%
CCOC(=O)c1c(S(=O)(=O)N2CCCC(C(=O)Nc3cccc(C#N)c3)C2)c(C)n(C)c1C (configuration not stated) -8.51%
CCOC(=O)c1c(S(=O)(=O)NCC(=O)Nc2ccc(C)c(N(C)C)c2)c(C)n(C)c1C -4.07%
Cc1cc2c(cc1S(=O)(=O)N(C)CC(=O)Nc1ccc(C#N)cc1)OCC(=O)N2 32.9%
NS(=O)(=O)c1ccc(CCNC(=O)c2ccc3nc(CCc4ccccc4)oc3c2)cc1 13.4%
CCOc1ccc(CC(=O)Nc2c(C(=O)Nc3ccc(OC)cc3OC)oc3ccccc23)cc1 -15.9%
Cc1ccc(S(=O)(=O)c2cn(CC(=O)Nc3ccccc3C)c3cc4c(cc3c2=O)OCO4)cc1 -16%
Cn1c(=O)c2c(SCC(=O)NCc3ccco3)nc(-c3cccc(F)c3)nc2n(C)c1=O -8.02%
COc1ccc(-c2nc3cc(C)ccn3c2NC(=O)c2ccc(F)cc2)cc1 -36.2%
C[C@H](N)[C@H](O)c1cccc(O)c1 7.69%
Cc1ccc(-n2nc3c(=O)n(CC(=O)NC(C)C)nc(C)c3c2C)cc1 -0.0054%
COc1ccc(S(=O)(=O)c2c(Nc3c(C)cccc3C)sc(C(=O)c3ccc4c(c3)OCO4)c2N)cc1 -24.2%
COc1cc(NC(=O)CC2C(=O)N(c3cccc(C)c3)C(=O)N2Cc2ccco2)cc(OC)c1 (configuration not stated) -18.7%
O=C(Nc1ccc2oc(-c3cccnc3)nc2c1)c1ccc(-c2cccc(Cl)c2)o1 -14.2%
COc1cccc(CCNC(=O)c2cnc3sc(N4CCCCCC4)nn3c2=O)c1 -1.25%
CCOC(=O)OCC/C(SC(=O)OCC)=C(\C)N(C=O)Cc1cnc(C)nc1N 7.62%
COc1ccc(CN(C)c2ccc(-c3nc(-c4ccccc4)no3)cc2[N+](=O)[O-])cc1 -5.94%
CCC(CC)C(=O)Nc1ccc2nc(SCc3ccccc3)sc2c1 -1.68%
COc1ccc2c(CC(=O)Nc3ccc(C)cc3)coc2c1 -1.02%
Cc1cccc(Nc2ncc(NC(=O)c3cccc(F)c3)c(Nc3cccc(C)c3)n2)c1 -22%
CS(=O)(=O)c1ncc(Cl)c(C(=O)Nc2c(C(=O)Nc3ccccc3)oc3ccccc23)n1 42.6%
